Data as given in PubChem BioAssay AID720664 (National Center for Advancing Translational Sciences (NCATS), 2013).
Records with an inconclusive call do not appear. The call rests on the fitted dose curve; in most records, active means well fitted inhibition curve with a large enough effect; inconclusive means small, poorly fitted or top-dose-only effect; inactive means flat fitted curve, though single readings scatter. A structure can be active in one record and inactive in another. Some entries of the source have several records that differ or are many. This is not the full list of results. The source may hold further records. The records of an entry repeat one measurement across runs, samples, wells, individuals or studies. What stands in brackets tells the records apart. The letters are not those of the source and start again with each entry. Signs of the kind (2×) stand for listed records that agree.

What follows are compounds tested against Galactokinase (Homo sapiens) (UniProt P51570) (assay: qHTS for Inhibitors of Human Galactokinase (GALK): SAR round 3). Details: ADP detection luminescence, 1 h; series mostly up to 57.5 µM.
From the text: Inherited deficiency of galactose-1-phosphate uridyltransferase (GALT) can result in a potentially lethal disorder called Classic Galactosemia (OMIM 230400). Several lines of evidence indicate that an elevated level of galactose-1-phosphate (gal-1-p), the product of galactokinase (GALK), is a major, if not sole, pathogenic mechanism in patients with classic galactosemia. Therefore, finding inhibitors of GALK is a potential novel therapy for this inherent metabolic disease and is the long term goal of this project. Active compounds observed in the qHTS GALK assay (AID: 1868) were cherry picked and re-screened for validation. GALK (provided by Kent Lai) was assayed using ATP and D-(+)-Galactose (Sigma-Aldrich cat# G0750) as substrates. Promega ADP-Glo technology was used to detect the ADP product formed after the kinase reaction. Kinase reactions with and without GALK were used as negative and positive controls together with Protein Tyrosine Phosphatase CD45 inhibitor (EMD Bioscience cat# 540215) which is shown to inhibit GALK activity. Decrease in activity corresponds to inhibition of the enzyme, the desired outcome for this assay. NIH Molecular Libraries Probe Production Network [MLPCN] NIH Chemical Genomics Center [NCGC] Grant: MH085689-01 PI Name: Kent Lai, University of Utah
Three uL/well of ATP-buffer solution (35 uM ATP, 20mM HEPES pH8.0, 5 mM MgCl2, 60 mM NaCl, 1 mM DTT, 0.01% BSA final concentration) was dispensed into 1536-well, assay plates (Greiner, solid white medium-binding plates) with Aurora Discovery BioRAPTR Flying Reagent Dispenser (FRD; Beckton-Dickenson). Compound and control solution (23 nL) was transferred to the assay plate using the Kalypsys 1536-pin tool apparatus. One uL/well GALK-galactose solution (5 nM GALK, 100 uM galactose, 20 mM HEPES pH8.0, 5 mM MgCl2, 60 mM NaCl, 1 mM DTT, 0.01% BSA final concentration) was then added using the FRD yielding a total kinase reaction volume of 4 uL/ well. After 1 hour of room temperature incubation, 4 uL Kinase-Glo Plus reagent was added for a final assay volume of 8 uL/well. Luminescence was detected with the ViewLux plate reader (Perkin Elmer, Waltham, MA) after 2 min incubation using a 1 sec exposure time and 2x binning.

Sequence of UniProt P51570 (P51570 whole entry, looked up): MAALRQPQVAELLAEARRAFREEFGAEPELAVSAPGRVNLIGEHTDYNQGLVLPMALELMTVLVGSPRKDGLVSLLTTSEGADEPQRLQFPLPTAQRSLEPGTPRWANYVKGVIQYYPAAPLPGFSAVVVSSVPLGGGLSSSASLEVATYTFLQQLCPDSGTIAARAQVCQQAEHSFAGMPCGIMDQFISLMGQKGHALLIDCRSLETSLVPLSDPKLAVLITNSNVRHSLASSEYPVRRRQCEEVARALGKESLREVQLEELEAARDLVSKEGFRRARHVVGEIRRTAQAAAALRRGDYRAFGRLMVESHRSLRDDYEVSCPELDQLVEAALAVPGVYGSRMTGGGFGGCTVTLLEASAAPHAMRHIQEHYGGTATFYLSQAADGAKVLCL

| Compound | Potency |
| --- | --- |
| O=C1CCCC2=C1C(c1ccncc1Br)N=C(Nc1nc3ccccc3o1)N2 (centres undefined) | active: 6.85 µM [sample A] and inactive [sample B] and active: 12.2 µM [sample C] |
| O=C1CCCC2=C1C(c1[nH]ncc1Cl)N=C(Nc1nc3cc(Br)ccc3o1)N2 (centres undefined) | inactive [sample A] and active: 9.68 µM [sample B] |
| O=C1CCCC2=C1C(c1[nH]ncc1Cl)N=C(Nc1nc3ccccc3o1)N2 (centres undefined) | inactive (2×) and active: 8.63, 12.2, 15.3, 17.2 µM [separate samples] |
| O=C1CCCC2=C1C(c1[nH]ncc1Br)N=C(Nc1nc3ccccc3o1)N2 (centres undefined) | active: 12.2 µM [sample A] and inactive [sample B] and active: 17.2 µM [sample C] |
